Out of some 310,000 compounds screened, about 2,200 (0.71%) showed an effect of 50% or more. The effect is printed as a negative number. This is one part of the list.
biological target: human ether-à-go-go-related gene (hERG) potassium channel (human, UniProt Q12809); test: primary screen, population patch clamp on CHO cells stably expressing hERG
Sequence (Q12809 whole entry, looked up): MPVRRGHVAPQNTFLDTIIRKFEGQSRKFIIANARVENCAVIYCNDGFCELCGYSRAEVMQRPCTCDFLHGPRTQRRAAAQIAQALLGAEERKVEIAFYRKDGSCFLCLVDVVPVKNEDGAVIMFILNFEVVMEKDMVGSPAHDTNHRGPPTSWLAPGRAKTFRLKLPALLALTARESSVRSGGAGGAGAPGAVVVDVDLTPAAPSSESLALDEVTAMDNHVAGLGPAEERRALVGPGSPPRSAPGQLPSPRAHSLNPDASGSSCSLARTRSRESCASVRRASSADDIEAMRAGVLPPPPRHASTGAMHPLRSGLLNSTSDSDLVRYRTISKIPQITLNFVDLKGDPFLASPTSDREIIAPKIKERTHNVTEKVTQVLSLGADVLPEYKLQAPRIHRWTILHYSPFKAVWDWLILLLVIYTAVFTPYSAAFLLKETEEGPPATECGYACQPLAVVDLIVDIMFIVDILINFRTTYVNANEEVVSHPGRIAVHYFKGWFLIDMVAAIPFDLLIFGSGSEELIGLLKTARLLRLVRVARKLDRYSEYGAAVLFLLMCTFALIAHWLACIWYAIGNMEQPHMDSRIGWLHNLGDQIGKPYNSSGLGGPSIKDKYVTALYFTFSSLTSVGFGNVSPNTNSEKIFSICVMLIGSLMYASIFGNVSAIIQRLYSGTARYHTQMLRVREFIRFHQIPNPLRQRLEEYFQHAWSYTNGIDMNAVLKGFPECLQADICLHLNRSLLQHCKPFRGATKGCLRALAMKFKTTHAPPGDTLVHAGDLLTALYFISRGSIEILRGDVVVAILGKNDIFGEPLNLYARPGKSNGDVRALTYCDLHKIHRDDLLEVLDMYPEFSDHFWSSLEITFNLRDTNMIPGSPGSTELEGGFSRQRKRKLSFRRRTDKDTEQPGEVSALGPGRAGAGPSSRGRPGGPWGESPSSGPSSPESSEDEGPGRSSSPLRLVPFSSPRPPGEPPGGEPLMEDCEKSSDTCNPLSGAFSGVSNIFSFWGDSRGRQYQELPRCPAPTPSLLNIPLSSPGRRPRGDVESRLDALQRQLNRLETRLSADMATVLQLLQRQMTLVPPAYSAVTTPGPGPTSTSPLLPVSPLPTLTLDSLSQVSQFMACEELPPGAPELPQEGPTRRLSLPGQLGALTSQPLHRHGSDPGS

| SMILES | hERG current change (%, negative = inhibition) at 1uM [%] |
| --- | --- |
| O=C(OCn1nnc2ccccc2c1=O)c1ccc(Br)o1 | 6.34 |
| CCN(CC)CCOC(=O)C(Cc1cccc2ccccc12)CC1CCCO1.O=C(O)C(=O)O (stereo not shown) | -20.2 |
| CCCCOc1ccc(/C=C/C(=O)OCC(=O)NC(=O)NCC(C)C)cc1OCC | 4.95 |
| O=C(Nc1cccc(C(F)(F)F)c1)C1CCN(S(=O)(=O)c2cccnc2)CC1 | 14 |
| COc1ccccc1CNC(=O)C(CC(C)C)NC(=O)C1CCC(C)CC1 (stereo not shown) | 15.2 |
| C/C(Cn1nc([N+](=O)[O-])cc1C)=N\NC(=O)c1ccc(O)cc1O | 12.7 |
| CC(=O)c1cc(C(=O)Nc2ccc(C(=O)O)cc2)oc1C | 21.5 |
| CCN(CC)C(=O)C(=O)c1cn(CC(=O)NCc2ccc3c(c2)OCO3)c2ccccc12 | 8.59 |
| C/C(=C\c1ccccc1)CN1CCN(C)CC1 | 15 |
| N/C(=N\OC(=O)Cc1ccc(Cl)cc1)c1cccnc1 | -2.59 |
| O/N=C/c1cc(Br)cc(Br)c1OCc1ccccc1 | 13.5 |
| Cc1ccc(NC(=O)C2CCCCC2)cc1C | 0.599 |
| C=CCn1ccc(=NC=C(C#N)C#N)c2ccccc21 | 6.38 |
| COC(=O)CC(NC(=O)c1cccs1)c1ccc(OC)c(OC)c1 (stereo not shown) | 12.1 |
| COc1cccc(NC(=O)CN(C)CC(=O)c2c(N)n(Cc3ccccc3)c(=O)n(C)c2=O)c1 | 7.16 |
| O=C(Nc1ccc(NC(=O)C2CC2)cc1)c1ccco1 | 21.6 |
| C[C@H](N)c1nnc(SCc2ccc(Cl)cc2Cl)o1.Cl | -11.3 |
| O=C1CCCCN1CCCC(=O)N1CCCC(Nc2ccccc2)C1 (stereo not shown) | 8.26 |
| O=C(NN=C(Cc1ccccc1)Cc1ccccc1)C1CC1 | 6 |
| COc1cc(C(=O)ON=C2C3CC4CC(C3)CC2C4)cc(OC)c1OC | 25.1 |
| CN(C)S(=O)(=O)c1ccc(Nc2nc(C3CC3)nc3c2nnn3Cc2ccccc2Cl)cc1 | 14.1 |
| CC(C)Cn1nc(C(=O)NCc2ccccc2CN2CCCC2)c2ccccc2c1=O | -6.93 |
| CCc1nc(SCC(=O)N2CCCC2)c2ccccc2n1 | 4.06 |
| COc1ccc(-c2cc(=O)c3ccccc3s2)cc1 | 8.85 |
| O=C(Cc1ccccc1[N+](=O)[O-])N/N=C/c1cccnc1 | 10.2 |
